# In paper PMC12040169 (PLOS Biology, 2025):
# The list shows a part of the results.
# System: T1, C. trachomatis L2/434/Bu expressing GFP (CTL2-GFP)
# T1 construct: L2/434/Bu GFP intracellular growth in HeLa cells
# Set-up: species or system HeLa; C. trachomatis total inclusion area by high-content imaging, normalised to DMSO
# Conditions: total inclusion area; 28.5 h, 10 µM; inhibitor
# Summary of the method: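 Bulk GFP and resorufin signals were read first. Wells were then fixed, stained with Hoechst and imaged to detect GFP inclusions and host nuclei. MICs followed the previously described calculation.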
row,SMILES,% of control remaining
1,Cc1ccccc1-c1ccc(C(=O)N2CCN(C)CC2)c(NCc2cccnc2)n1 [CBK076125],82.4414
2,CCOC(=O)Cc1csc(SC(C)C(=O)N2CCc3ccccc3C2)n1 (stereo not drawn) [CBK305586],15.4913
3,CN(Cc1ccccc1N1CCOCC1)C(=O)Cc1cn2ccsc2n1 [CBK305830],62.7825
4,CS(=O)(=O)N[C@H]1C[C@H]2C(=O)Nc3ccc(-c4ccc(F)cc4F)cc3C(=O)N2C1 [CBK289368],93.872
5,CC(=O)Nc1ccc(S(=O)(=O)N(C)CC(=O)O)cc1 [CBK267570],92.6653
6,O=C(Nc1cccc(C=Cc2ccccn2)c1)c1c[nH]nc1-c1ccc(F)cc1 [CBK295335],87.9875
7,Cc1ccc(C)n1C1CC(C)(C)NC(C)(C)C1 [CBK019116],46.6745
8,COc1ccc(C2CCCN2C(=O)CC2CCN(C(=O)CC3CCCCC3)CC2)cc1 (stereo not drawn) [CBK286263],79.5583
9,COc1ccc(CC(=O)N2CCCC2c2cccc(Cc3cccc(F)c3)n2)cc1 (stereo not drawn) [CBK286220],102.641
10,CC(C)CN1CC(C(=O)NCc2ccccc2-n2ccnc2)CC1=O (stereo not drawn) [CBK282189],87.9025
11,COc1ccc(C(=O)Nc2ccc(S(=O)(=O)Nc3nccs3)cc2)cc1I [CBK263880],52.2804
12,O=C(C1CC1)N1CCC(c2[nH]ncc2-c2ccncc2)CC1 [CBK284238],69.2287
13,Cc1c(S(=O)(=O)Nc2ccnn2C)cnn1-c1ccccc1 [CBK062079],99.8198
14,O=C(NCc1ccc2c(c1)CCCO2)C1CC2C=CC1C21CC1 (stereo not drawn) [CBK281503],89.8657
15,CC(NC(=O)c1cccc(-n2cnnc2)c1)c1ccc2c(c1)CCC2 (stereo not drawn) [CBK282707],96.6999
16,O=C(Nc1cccc([N+](=O)[O-])c1)c1ccc(CSc2ccccc2)cc1 [CBK265295],100.68
17,CC(=O)NC[C@H]1CN(c2ccc3c(c2)CCN(C(=O)Oc2ccccc2)CC3)C(=O)O1 [CBK018498],2.421
18,Cc1ccc(Cn2nc(NC(=O)C3CCCCC3)c3ccccc32)cc1 [CBK048217],126.659
19,O=S(=O)(c1ccccc1)N1Cc2cccc3[nH]cc(c23)C1 [CBK153275],98.7385
20,C[C@@H](Cn1nc2c(cc1=O)CCCC2)NC(=O)c1ccc(F)cc1 [CBK284562],108.484

row,SMILES,% of control remaining
1,COc1cc(C)c(Nc2cccc(/C=C/c3ccccc3)n2)cc1OC [CBK037725],88.1766
2,Nc1ncc(-c2ccc(C(=O)N3CCOCC3)cc2)nc1-c1ccsc1 [CBK200422],90.1045
3,COc1ccc(-c2nnc3c4ccccc4c(C)nn23)cc1S(=O)(=O)N1CCCCC1 [CBK266640],89.8648
4,CCOc1ccccc1N1CCN(C(C(=O)O)c2c[nH]c3ccc(CO)cc23)CC1 (stereo not drawn) [CBK286816],92.6777
5,O=C(O)CCC(=O)N[C@H]1CCN2C(=O)c3cc(-c4ccc(Cl)cc4)ccc3NC(=O)[C@H]12 [CBK289275],100.277
6,CC(=O)c1sc2nc(-c3ccccc3)nc(C)c2c1N [CBK115368],83.9701
7,O=C(O)c1nccnc1-c1ccc(Cn2ccc3ccccc32)cc1 [CBK050811],115.867
8,Cc1[nH]c2ccccc2c1/C=N/NC(=O)C1COc2ccccc2O1 (stereo not drawn) [CBK261482],115.278
9,CCCC/C=C/c1cncc(NC2CCC(N)CC2)n1 (stereo not drawn) [CBK037827],97.549
10,CC(=O)Nc1cccc(-c2nccnc2N2CCCCC2CCO)c1 (stereo not drawn) [CBK036591],117.18
11,Cc1ccc(OCC(=O)NCC2CCN(c3cnn(C)c(=O)c3)C2)cc1 (stereo not drawn) [CBK306693],88.0184
12,CC(C)n1ncc2cc(C(=O)Nc3ncccc3O)cnc21 [CBK305751],90.3504
13,CCCCc1ccc(-c2nc3ncccc3cc2O)cc1 [CBK073702],69.7048
14,CCN(CC(=O)Nc1ccc(OC)c(Cl)c1)S(=O)(=O)c1ccc2ccccc2c1 [CBK267910],103.114
15,Cc1cc(NS(=O)(=O)c2ccc(Nc3nc(-c4ccccn4)cs3)cc2)no1 [CBK263302B],22.0676
16,CC(=O)N1C[C@H](c2cccc(C)c2)[C@H]2CN(C3CCCC3)CC[C@H]21 [CBK283369],108.558
17,CCOc1ccccc1/C=N/Nc1ccccc1[N+](=O)[O-] [CBK261673],109.799
18,O=C(c1ccco1)N(CCCn1ccnc1)c1nc2c(F)cccc2s1 [CBK287758],99.7431
19,Cn1ccnc1C(NC(=O)[C@@H]1C[C@@H]2C=C[C@H]1C2)c1ccc(F)cc1 (stereo partly drawn) [CBK281483],97.2136
